Experimental data taken from PubChem BioAssay (NCATS).
The list shows a part of the results. Shown are side measurements of this screen, not its main read-out; they come without a call. Compounds called inactive in the main read-out are mostly missing here. Potencies come from curve fits of mixed quality, noted in brackets.

target: Histamine N-methyltransferase (Homo sapiens) (UniProt P50135); assay: Confirmatory Screen for Target Class Profiling of Small Molecule Inhibitors of Methyltransferases (AID 1745852); details: MTase-Glo luminescence, SAH detection, recombinant enzyme; measured here: HNMT inhibition potency;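 also: inhibitor potency for blocking SAH production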
Tags tell the direction and shape of the fitted curve.

Sequence of UniProt P50135 (P50135 whole entry, looked up): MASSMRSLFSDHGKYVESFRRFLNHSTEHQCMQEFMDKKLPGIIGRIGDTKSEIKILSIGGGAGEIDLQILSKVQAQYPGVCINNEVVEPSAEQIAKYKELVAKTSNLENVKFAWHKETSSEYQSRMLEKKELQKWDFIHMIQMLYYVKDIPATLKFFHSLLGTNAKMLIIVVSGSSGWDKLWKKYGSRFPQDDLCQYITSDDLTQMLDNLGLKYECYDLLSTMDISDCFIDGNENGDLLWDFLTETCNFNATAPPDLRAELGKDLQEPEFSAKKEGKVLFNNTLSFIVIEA

| SMILES | IC50 |
| --- | --- |
| CN(C)c1nc2c(c(N3C[C@@H](CN4CCCC4)[C@@H](CO)C3)n1)CCCC2 | 4.29 µM [falling, partial curve] |
| COc1cccc(-c2cc(NCc3ccc4c(c3)OCO4)nc(N)n2)c1 | 21.5 µM [falling, partial curve] |
| CCN(CC)c1cc(CCC(=O)N2CCN(c3cccc(OC)c3)CC2)ccn1 | 7.64 µM [falling, partial curve] |
| Cc1cn(CCN2CCN(c3ccccc3-c3cc(C#N)cc(C(=O)NCCCN4CCCC4)c3)CC2)c2ccccc12 | 3.41 µM [falling, full curve] |
| O=C(CCc1nnc2n(CCc3ccccc3)c(=O)c3ccccc3n12)NCCCN1CCCCC1 | 7.64 µM [falling, partial curve] |
| COc1ccccc1CC(=O)N1CCCc2ncc(C(=O)Nc3cccc(Cl)c3)cc21 | 15.6 µM [falling, partial curve] |
| COc1ccc(NC(=O)c2ccc(-c3ccc(C(=N)N)cc3C)cc2)cc1N1CCN(C)CC1 | 15.2 µM [falling, partial curve] |
| COc1cc2c(NC3CCN(CC4CCCCC4)CC3)nc(N3CCCN(C(C)C)CC3)nc2cc1OCCCN1CCCCC1 | 4.29 µM [falling, full curve] |
| CCN(CC)CCCNC(=O)CCc1nnc2n(Cc3ccccc3)c(=O)c3ccccc3n12 | 19.2 µM [falling, partial curve] |
| O=C(NCCCN1CCc2ccccc2C1)C1CCc2ncc(-c3ccc(F)cc3)n2C1 (stereo not drawn) | 21.5 µM [falling, partial curve] |
| CN(CCCNC(=O)CCc1nnc2n(Cc3ccccc3)c(=O)c3ccccc3n12)Cc1ccccc1 | 19.2 µM [falling, partial curve] |
| CC(C)c1nc(-c2ccc(NC(=O)Nc3cccc(C(F)(F)F)c3)c3ccccc23)c2c(N)nccn12 | 21.5 µM [falling, partial curve] |
| COc1ccc(CN2CCCC(COc3ccccc3C(=O)NC3CC3)C2)c(OC)c1 (stereo not drawn) | 21.5 µM [falling, partial curve] |
| CC(=O)NC1CC2(CCN(Cc3ccc(O)cc3)CC2)c2ccccc21 (stereo not drawn) | 23.9 µM [falling, partial curve, poor fit] |
| O=C(Nc1ccc2c(N3CCCC3)ncnc2c1)c1cc(F)ccc1Cl | 2.15 µM [falling, full curve] |
| Oc1ccc(NCCN2CCCC2)cc1 | 44.1 µM [falling, partial curve] |
| CCN1CCN(c2nc3c(S(=O)(=O)c4ccc(Br)cc4)nnn3c3ccccc23)CC1 | 10.8 µM [falling, partial curve] |
| CCC(=O)N1CCOc2c(cc(-c3ccc(OC)c(OC)c3)cc2OC[C@H]2CCCN(C)C2)C1 | 21.5 µM [falling, partial curve] |
| COc1ccc(NC(=O)C(C)(C)Oc2nn(CC3CC3)c3ccc(CN4CCCC4)cc23)cc1 | 19.2 µM [falling, partial curve] |
| CC1CCCCN1CCNC(=O)CCc1nnc2n(Cc3ccc(F)cc3)c(=O)c3ccccc3n12 (stereo not drawn) | 9.61 µM [falling, partial curve] |
| Cc1cnc(CCNC(=O)Nc2ccc3c(c2)OCCO3)n1C1CCC1 | 15.2 µM [falling, partial curve] |
| COc1cc(C(=O)NC2CCN(C)CC2)ccc1Nc1ncc2c(n1)N(C1CCCC1)CC(F)(F)C(=O)N2C | 19.2 µM [falling, partial curve] |
| CCCNc1cc(N2CCC(CCC(=O)NCCN3CCCCCC3)CC2)ncn1 | 21.5 µM [falling, partial curve, poor fit] |
| CCN(CC)CCNC(=O)CCc1nnc2n(Cc3ccccc3Cl)c(=O)c3ccccc3n12 | 21.5 µM [falling, partial curve] |
| c1ccc(-c2cc3c(cn2)NCCN(Cc2ccccn2)C3)cc1 | 35 µM [falling, partial curve] |
| CC1CCN(CCCNC(=O)CCc2nnc3n(Cc4ccccc4)c(=O)c4ccccc4n23)CC1 | 10.8 µM [falling, partial curve] |
| CCC(=C(c1ccc(OCCN2CCCC2)cc1)c1ccc(OCCN2CCCC2)cc1)c1ccccc1 | 1.97 µM [falling, partial curve] |
| Cc1ccc(Cn2c(=O)c3ccccc3n3c(CCC(=O)NCCCN4CCC(C)CC4)nnc23)cc1 | 6.07 µM [falling, full curve] |
